Measured values from the supplement of paper PMC10126150.
Values marked as one replicate rest on one cluster of the flow cell; about a third of the high ones do not repeat.
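Note: ATP exposure 15 min at 22 °C before imaging.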

These sequences were tested on ATP (assay: switch fluorescence ratio, 500 uM ATP over buffer (Cy3 cluster intensity, sum of 5 cycles each) (fold (ratio)); higher = stronger signal-on switching upon ATP binding; sequences stand for … in TCGTCGGCAGCGTCAGATGTGTATAAGAGACAGTTTTTTTTTTTTTTTTTTTTTTTTT…TC). Details: aptamer strand: ATP DNA aptamer (quencher-CACCTGGGGGAGTATTGCGGAGGAAGG + anchor), 100 nM annealed; ATP concentration: 500 uM; one replicate.
Procedure, shortened: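 Clusters carrying Cy3-labelled switching strands on a modified Illumina MiSeq flow-cell were annealed to 100 nM quencher-labelled ATP aptamer and imaged in selection buffer. They were imaged again after 15 min with 500 uM ATP at 22 °C, over five buffer/ATP cycles with NaOH stripping and re-annealing in between. For each cluster, the fluorescence ratio is the summed Cy3 intensity of the target cycles divided by that of the buffer cycles, averaged per switch-domain sequence. Clusters outside 100-1000 RFU were left out.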
AGAGAATAAC showed a switch fluorescence ratio of 1.01. AGAGAGGATG gave a switch fluorescence ratio of 1. With AGAGAGGGAG the switch fluorescence ratio was 1.01. For AGAGATGACT, the switch fluorescence ratio was 1.01. With AGAGATTGG the switch fluorescence ratio was 0.994. Work on AGAGCAGCAG yielded a switch fluorescence ratio of 0.997. Sequence AGAGCATAAT has a switch fluorescence ratio of 1.01. Sequence AGAGCCTCTG has a switch fluorescence ratio of 1.07. With AGAGCTTCCG the switch fluorescence ratio was 1.26. With AGAGGACTGC the switch fluorescence ratio was 1.03. For AGAGGCCCCG, the switch fluorescence ratio was 1. In the case of AGAGGGGCCT, the switch fluorescence ratio is reported as 0.992. In the case of AGAGGGGCGC, the switch fluorescence ratio is reported as 1.11. For AGAGGGTGAA, the switch fluorescence ratio was 1.02. Work on AGAGGGTTTC yielded a switch fluorescence ratio of 1.02. For AGAGGTAGTG, the switch fluorescence ratio was 0.974. Work on AGAGTGAAGG yielded a switch fluorescence ratio of 0.987. In the case of AGAGTTCTCA, the switch fluorescence ratio is reported as 0.983. Sequence AGAGTTGT has a switch fluorescence ratio of 1.02. AGAGTTTATT gave a switch fluorescence ratio of 0.981. With AGATAAATGA the switch fluorescence ratio was 0.992. Work on AGATAATGGA yielded a switch fluorescence ratio of 1.02. Sequence AGATACAATC has a switch fluorescence ratio of 1. Sequence AGATACAGGA has a switch fluorescence ratio of 1.03. In the case of AGATAGATAC, the switch fluorescence ratio is reported as 1.13. In the case of AGATAGCAAT, the switch fluorescence ratio is reported as 1.91. With AGATAGTATA the switch fluorescence ratio was 1. In the case of AGATAGTGGA, the switch fluorescence ratio is reported as 0.989. With AGATAGTGTG the switch fluorescence ratio was 1.04. In the case of AGATATGGAT, the switch fluorescence ratio is reported as 0.96. In the case of AGATCAGTGG, the switch fluorescence ratio is reported as 1. AGATCGGAAC showed a switch fluorescence ratio of 1.03. AGATCGTAGT was tested, and the switch fluorescence ratio was 1.01. Work on AGATCTAAGA yielded a switch fluorescence ratio of 0.962. Sequence AGATGAAGCG has a switch fluorescence ratio of 0.993. In the case of AGATGATAAC, the switch fluorescence ratio is reported as 1.01. AGATGCGGTC gave a switch fluorescence ratio of 0.752. Work on AGATGGGTTA yielded a switch fluorescence ratio of 0.992. For AGATGGTGGT, the switch fluorescence ratio was 0.972. Work on AGATGTGTCA yielded a switch fluorescence ratio of 0.948. Sequence AGATGTTATT has a switch fluorescence ratio of 0.992. Work on AGATGTTCTC yielded a switch fluorescence ratio of 0.959. Work on AGATTAAATT yielded a switch fluorescence ratio of 0.998. For AGATTCCTT, the switch fluorescence ratio was 1.06. Work on AGATTCTCCT yielded a switch fluorescence ratio of 1.05. Sequence AGATTCTCGC has a switch fluorescence ratio of 1.04. Work on AGATTGGAAC yielded a switch fluorescence ratio of 0.987. Sequence AGATTGGAGC has a switch fluorescence ratio of 1.04. For AGATTTAAAA, the switch fluorescence ratio was 1.1. Sequence AGATTTAAAC has a switch fluorescence ratio of 0.993. With AGATTTAGT the switch fluorescence ratio was 0.947. Work on AGATTTCGCA yielded a switch fluorescence ratio of 0.976. AGCAAATAGG was tested, and the switch fluorescence ratio was 1.11. AGCAAATATG was tested, and the switch fluorescence ratio was 1.04. In the case of AGCAACCGAC, the switch fluorescence ratio is reported as 3.32. In the case of AGCAACTGAT, the switch fluorescence ratio is reported as 1.04. AGCAAGGAAC showed a switch fluorescence ratio of 1.38. AGCAATGGCA was tested, and the switch fluorescence ratio was 1.13. For AGCAATTGTA, the switch fluorescence ratio was 1.14. With AGCACACTTT the switch fluorescence ratio was 1.05. Work on AGCACATATC yielded a switch fluorescence ratio of 2.85. With AGCACCAGAT the switch fluorescence ratio was 0.982. AGCACCGGCA showed a switch fluorescence ratio of 1.05. AGCACCTCTT was tested, and the switch fluorescence ratio was 1.03. AGCACGCGAA gave a switch fluorescence ratio of 1.07. Work on AGCAGATTCC yielded a switch fluorescence ratio of 1.09. AGCAGCCAGT showed a switch fluorescence ratio of 1.03. AGCAGGAGCA showed a switch fluorescence ratio of 1. AGCAGGTGAG gave a switch fluorescence ratio of 1.29. In the case of AGCAGGTGAT, the switch fluorescence ratio is reported as 1.87. AGCATATATC gave a switch fluorescence ratio of 2.69. Work on AGCATCAGCT yielded a switch fluorescence ratio of 1.05. Sequence AGCATCTTAT has a switch fluorescence ratio of 0.97. AGCATGCAAC showed a switch fluorescence ratio of 1.07. Sequence AGCATGGCT has a switch fluorescence ratio of 0.948. In the case of AGCATGGGCA, the switch fluorescence ratio is reported as 0.986. AGCATGTAGG gave a switch fluorescence ratio of 0.993. Sequence AGCATGTAT has a switch fluorescence ratio of 1.02. AGCATTGACA was tested, and the switch fluorescence ratio was 1.14. AGCATTTGTC gave a switch fluorescence ratio of 1.01. Work on AGCCACATGT yielded a switch fluorescence ratio of 1.01. AGCCACCTGG was tested, and the switch fluorescence ratio was 1.04. With AGCCACGACG the switch fluorescence ratio was 1.03. For AGCCATGTCA, the switch fluorescence ratio was 1.05. With AGCCCAGAAT the switch fluorescence ratio was 1.01. With AGCCCAGATA the switch fluorescence ratio was 0.98. Work on AGCCCCGACA yielded a switch fluorescence ratio of 1.02. AGCCCGTAAT gave a switch fluorescence ratio of 1.3. With AGCCCGTTTC the switch fluorescence ratio was 1.01. Work on AGCCCTATCG yielded a switch fluorescence ratio of 0.972. Work on AGCCCTGTAT yielded a switch fluorescence ratio of 0.99. In the case of AGCCGAAGGA, the switch fluorescence ratio is reported as 1.02. AGCCGATGTG showed a switch fluorescence ratio of 1.02. For AGCCGGAGG, the switch fluorescence ratio was 1.01. In the case of AGCCGGCAAG, the switch fluorescence ratio is reported as 1. AGCCGGCTGT showed a switch fluorescence ratio of 1.01. Sequence AGCCGGTT has a switch fluorescence ratio of 0.941. In the case of AGCCGTATTA, the switch fluorescence ratio is reported as 1.01. AGCCGTTG gave a switch fluorescence ratio of 1.02. In the case of AGCCTACGGC, the switch fluorescence ratio is reported as 1.02. AGCCTCAGG gave a switch fluorescence ratio of 1.06. Work on AGCCTCAGGT yielded a switch fluorescence ratio of 1.1. For AGCCTGGGAC, the switch fluorescence ratio was 1.02. With AGCGAAGAAC the switch fluorescence ratio was 1.02. AGCGAATGGC was tested, and the switch fluorescence ratio was 1.11. Sequence AGCGACTACG has a switch fluorescence ratio of 0.986. With AGCGAGAATA the switch fluorescence ratio was 1. For AGCGAGCTAG, the switch fluorescence ratio was 1.01. With AGCGAGGA the switch fluorescence ratio was 1.03. In the case of AGCGATCTA, the switch fluorescence ratio is reported as 1.01. In the case of AGCGCAAGTG, the switch fluorescence ratio is reported as 0.975. With AGCGCATGGA the switch fluorescence ratio was 1.04. With AGCGCCAAAA the switch fluorescence ratio was 1.01. AGCGCCCCGT gave a switch fluorescence ratio of 0.998. Sequence AGCGCCCCTT has a switch fluorescence ratio of 0.982. In the case of AGCGCCGTGG, the switch fluorescence ratio is reported as 1.13. For AGCGCGAAAA, the switch fluorescence ratio was 0.968. In the case of AGCGCGCGGA, the switch fluorescence ratio is reported as 1.02. Work on AGCGCGTAAA yielded a switch fluorescence ratio of 1.05. With AGCGCTGAC the switch fluorescence ratio was 1.14. Work on AGCGCTTGGA yielded a switch fluorescence ratio of 0.99. AGCGGAAAGA gave a switch fluorescence ratio of 1.02. In the case of AGCGGACCGC, the switch fluorescence ratio is reported as 1. AGCGGAGTAC gave a switch fluorescence ratio of 1.1. In the case of AGCGGATGGG, the switch fluorescence ratio is reported as 0.985. AGCGGCAGAT was tested, and the switch fluorescence ratio was 0.983. Sequence AGCGGCATCG has a switch fluorescence ratio of 0.967. In the case of AGCGGCATTT, the switch fluorescence ratio is reported as 1. AGCGGGACGC was tested, and the switch fluorescence ratio was 0.982. For AGCGGGCGCG, the switch fluorescence ratio was 1.01. In the case of AGCGGGCTAC, the switch fluorescence ratio is reported as 1.05. Sequence AGCGGTCTTG has a switch fluorescence ratio of 1.02. AGCGGTTGGC gave a switch fluorescence ratio of 0.991. With AGCGTAGTGA the switch fluorescence ratio was 1.02. Work on AGCGTCAAA yielded a switch fluorescence ratio of 0.964. For AGCGTCATGT, the switch fluorescence ratio was 0.998. With AGCGTGGCTG the switch fluorescence ratio was 1.03. In the case of AGCGTGTGTT, the switch fluorescence ratio is reported as 1.02. AGCTAAATGT gave a switch fluorescence ratio of 0.973. With AGCTACAGCA the switch fluorescence ratio was 0.955. For AGCTACGTGC, the switch fluorescence ratio was 0.991. AGCTACTG gave a switch fluorescence ratio of 1.04. AGCTACTGCT showed a switch fluorescence ratio of 1.03. For AGCTACTGTG, the switch fluorescence ratio was 0.98. Sequence AGCTAGTAT has a switch fluorescence ratio of 0.998. AGCTATAATG showed a switch fluorescence ratio of 1.06. For AGCTCAGGAG, the switch fluorescence ratio was 1.05. With AGCTCAGTCA the switch fluorescence ratio was 0.991. AGCTCCCCGC showed a switch fluorescence ratio of 1.35. AGCTCGATA was tested, and the switch fluorescence ratio was 1.01. In the case of AGCTCGGGTT, the switch fluorescence ratio is reported as 0.975. AGCTCTTCGG gave a switch fluorescence ratio of 0.94. For AGCTCTTTTT, the switch fluorescence ratio was 1.03. In the case of AGCTGAAGTA, the switch fluorescence ratio is reported as 0.976. With AGCTGAGGG the switch fluorescence ratio was 0.977. Sequence AGCTGAGTTA has a switch fluorescence ratio of 0.996. Work on AGCTGCTAT yielded a switch fluorescence ratio of 1.1. For AGCTGCTGCG, the switch fluorescence ratio was 0.929. Sequence AGCTGGCCTA has a switch fluorescence ratio of 1.03. For AGCTGTAGGA, the switch fluorescence ratio was 1. Work on AGCTGTTCGA yielded a switch fluorescence ratio of 1.01. AGCTTATCGC gave a switch fluorescence ratio of 1.17. Work on AGCTTCGGCC yielded a switch fluorescence ratio of 1.13. In the case of AGCTTCTTGG, the switch fluorescence ratio is reported as 1.01. AGCTTGGCAC was tested, and the switch fluorescence ratio was 0.997. AGCTTGGCCG was tested, and the switch fluorescence ratio was 1.11. AGCTTGTAGA was tested, and the switch fluorescence ratio was 0.989. AGCTTTACGA was tested, and the switch fluorescence ratio was 1.39. AGCTTTGGAT was tested, and the switch fluorescence ratio was 1.02. With AGCTTTGGCT the switch fluorescence ratio was 1.03. With AGCTTTTCGT the switch fluorescence ratio was 0.985. AGGAAATGTC showed a switch fluorescence ratio of 1. Sequence AGGAACACTT has a switch fluorescence ratio of 1. AGGAACCCGA showed a switch fluorescence ratio of 1.03. For AGGAACGAGC, the switch fluorescence ratio was 1.01. Work on AGGAACGCTT yielded a switch fluorescence ratio of 1.01. AGGAACGGGA gave a switch fluorescence ratio of 1.05. For AGGAATAATT, the switch fluorescence ratio was 1.06. AGGAATAGAG was tested, and the switch fluorescence ratio was 1.01. AGGAATCACT showed a switch fluorescence ratio of 1.02. AGGAATGAG was tested, and the switch fluorescence ratio was 1.01. AGGAATGTAT showed a switch fluorescence ratio of 0.974. AGGAATTCAA showed a switch fluorescence ratio of 1.03. Sequence AGGACATGGG has a switch fluorescence ratio of 1.01. Sequence AGGACTATTA has a switch fluorescence ratio of 1.05. AGGAGAATGA gave a switch fluorescence ratio of 1.02. Work on AGGAGACCTT yielded a switch fluorescence ratio of 1.22. For AGGAGCACTG, the switch fluorescence ratio was 1.16. AGGAGCAGCC gave a switch fluorescence ratio of 1.02. For AGGAGCCTGA, the switch fluorescence ratio was 0.994. In the case of AGGAGGGAGT, the switch fluorescence ratio is reported as 1.02. AGGAGGGTG showed a switch fluorescence ratio of 0.953. AGGAGGTTGC showed a switch fluorescence ratio of 1.03. In the case of AGGAGTAGGA, the switch fluorescence ratio is reported as 1. Work on AGGAGTAT yielded a switch fluorescence ratio of 1.02. AGGAGTTGGT gave a switch fluorescence ratio of 1.01. In the case of AGGATCGGAG, the switch fluorescence ratio is reported as 1.02. AGGATGAACG gave a switch fluorescence ratio of 0.993. Sequence AGGATGACTT has a switch fluorescence ratio of 0.977. For AGGATGAGGG, the switch fluorescence ratio was 1.03. AGGATGCATA gave a switch fluorescence ratio of 0.955.
